The whole screen tested about 230,000 compounds, of which about 3,600 (1.6%) were called active. This list was built around the results that the source calls inconclusive (neither active nor inactive); the mix of calls is not that of the screen. Calls follow the shape of the dose curve; as a rule, active = well fitted inhibition curve with a large enough effect (not every such curve was filed as active); inconclusive = small, poorly fitted or top-dose-only effect, or another doubt; inactive = no such curve, though single readings can be large or run the other way. Potencies beside an inconclusive call are fits to weak or partial responses and may not hold up.
biological target: Lysine-specific demethylase 4E (Homo sapiens) (UniProt B2RXH2); assay: qHTS Assay for Inhibitors of Human Jumonji Domain Containing 2E (JMJD2E); settings: JMJD2E catalytic domain, FDH-coupled NADH fluorescence (FDH is formaldehyde dehydrogenase); series mostly up to 57.1 µM
Also: nearly all actives have a fitted effect of over 50% in size.
Potency is read from the fitted curve at half-maximal effect; tags tell the direction and shape of the fitted curve.

Sequence of UniProt B2RXH2 (B2RXH2 whole entry, looked up, the tested form may be a part): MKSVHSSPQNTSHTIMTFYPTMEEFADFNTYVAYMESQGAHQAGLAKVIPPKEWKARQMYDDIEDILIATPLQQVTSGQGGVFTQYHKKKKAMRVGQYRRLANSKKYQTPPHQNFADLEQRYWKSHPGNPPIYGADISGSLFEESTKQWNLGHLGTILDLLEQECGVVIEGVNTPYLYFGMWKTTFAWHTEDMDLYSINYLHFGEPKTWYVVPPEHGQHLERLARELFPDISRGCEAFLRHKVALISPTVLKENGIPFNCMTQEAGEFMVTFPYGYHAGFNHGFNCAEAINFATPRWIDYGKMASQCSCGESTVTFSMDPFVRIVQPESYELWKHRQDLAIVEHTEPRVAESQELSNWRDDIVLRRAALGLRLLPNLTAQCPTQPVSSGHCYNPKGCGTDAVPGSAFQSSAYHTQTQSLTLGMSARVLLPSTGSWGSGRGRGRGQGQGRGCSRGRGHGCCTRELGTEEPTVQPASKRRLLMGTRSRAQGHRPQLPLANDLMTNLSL

Compound | Potency
c1ccc(-c2nc[nH]c2-c2ccccc2)cc1 | inconclusive: 39.8 µM [inhibitor, single point]
COc1cc2[nH]c(=O)n(C3CCCCC3)c(=O)c2cc1OC | inconclusive: 28.2 µM [inhibitor, single point]
COc1cc2c(cc1OC)-c1nnc(-c3cccs3)n1C1(CCCC1)C2 | inconclusive: 14.1 µM [inhibitor, partial curve]
CCN(CCNC(=O)C1CCN(Cc2nc(-c3ccc(Cl)cc3)oc2C)CC1)c1ccccc1 | inactive
Cn1c2ccccc2c2ncn(Cc3ccc(F)cc3)c(=O)c21 | inconclusive: 2.24 µM [inhibitor, partial curve]
Cc1ccc(S(=O)(=O)Oc2ccc(C3C4=C(CCCC4=O)N(CCC(=O)O)C4=C3C(=O)CCC4)cc2Cl)cc1 | inconclusive: 25.1 µM [inhibitor, partial curve]
CC(C)(C)c1nn2cnnc2n(/N=C/c2cccc3ccccc23)c1=O | inactive
CC(/C=C/C=C/c1ccccc1)=N\NC(=O)c1cccnc1 | inactive
O=C(Nc1cccc(C(F)(F)F)c1)c1cc2c(s1)-c1ccccc1OC2 | inconclusive: 14.1 µM [inhibitor, partial curve]
CCOc1ccccc1NC(=O)Nc1ccon1 | inactive
COc1ccc(COc2ccsc2C(=O)Nc2ccc(Cl)c(Cl)c2)cc1 | inconclusive: 28.2 µM [inhibitor, single point]
O/N=C(\c1ccc(Cl)cc1Cl)c1ncc(C(F)(F)F)cc1Cl | inactive
COc1ccc(-c2cc(=O)oc3cc(OC(=O)C4CCCCC4)ccc23)cc1 | inconclusive: 25.1 µM [inhibitor, single point]
Cc1ccc(S(=O)(=O)NC(C)(C)CSc2ncccn2)cc1 | inactive
O=C(C#Cc1ccccc1)c1cccc([N+](=O)[O-])c1 | inactive
CCOC(=O)c1c(NC(=O)c2ccc(C)cc2)sc2c1CC(C)(C)OC2 | inconclusive: 35.5 µM [inhibitor, partial curve]
CCN(CC)c1ccc(-c2nc3cnccc3n2C)cc1 | inconclusive: 31.6 µM [inhibitor, partial curve]
O=C(c1cc2c(cc1Br)OCCCO2)N1CCCCC1 | inactive
COCCn1c(N)c(C#N)c2nc3ccccc3nc21 | inconclusive: 31.6 µM [inhibitor, partial curve]
CC1(C)Cc2nc(N3CCOCC3)c(C#N)cc2CO1 | inconclusive: 22.4 µM [inhibitor, partial curve]
CN1CCN(C(=O)/C=C/c2cn(-c3ccccc3)nc2-c2ccc3c(c2)OCCO3)CC1 | inconclusive: 25.1 µM [inhibitor, partial curve]
Cc1cc(OCc2nn[nH]n2)c2c(-c3ccccc3)cc(=O)oc2c1 | inconclusive: 28.2 µM [inhibitor, partial curve]
CC(C(=O)N1c2ccccc2Sc2ccccc21)n1nnc(-c2cccs2)n1 (configuration not stated) | inactive
Cc1nc(-c2ccccc2)sc1C1(C)CC(c2c(Cl)cccc2Cl)=NO1 (configuration not stated) | inconclusive: 4.47 µM [inhibitor, partial curve]

Compound | Potency
O=C(CN1C(=O)/C(=C\c2ccc(F)cc2)Oc2ccccc21)NCc1ccco1 | inconclusive: 1.58 µM [inhibitor, full curve]
CSc1nc(NCCOCCO)c2sc3nc(-c4ccco4)c4c(c3c2n1)CCC4 | inconclusive: 28.2 µM [inhibitor, partial curve]
Cc1nnc2ccc(-c3cccc(NC(=O)c4ccc(Cl)nc4)c3)nn12 | inconclusive: 25.1 µM [inhibitor, single point]
CCCCc1cc(=O)oc2cc(C)cc(O)c12 | inactive
COc1cccc(Nc2nc3ccccc3n3nnnc23)c1 | inconclusive: 35.5 µM [inhibitor, single point]
CCOC(=O)C1CCCN(Cc2cccs2)C1 (configuration not stated) | inconclusive: 39.8 µM [inhibitor, single point]
Cc1nn(CCc2nn[nH]n2)c2nc(-c3ccc(Br)cc3)cc(C(F)(F)F)c12 | inconclusive: 31.6 µM [inhibitor, partial curve]
Cn1c2ccccc2n2c(=O)cc(-c3ccccc3)c(C#N)c12 | inconclusive: 25.1 µM [inhibitor, partial curve]
Cn1c(C(=O)NCCN2CCCCCC2)cc2c(=O)n(C)c3ccccc3c21 | inconclusive: 25.1 µM [inhibitor, partial curve]
O=C(O)c1cccc(N(CCO)CCO)c1 | inconclusive: 31.6 µM [inhibitor, partial curve]
O=C(C1=C[C@@H](c2ccc(C(F)(F)F)cc2)C[C@@H](OCc2ccc(CO)cc2)O1)N1CCN(Cc2ccc3c(c2)OCO3)CC1 | inconclusive: 39.8 µM [inhibitor, single point]
CC(=O)C1C(=O)c2c(cccc2[N+](=O)[O-])C1=Nc1cccc(Cl)c1 (configuration not stated) | inactive
O=C(Nc1cnc2ccccc2c1)N1CCOCC1 | inconclusive: 35.5 µM [inhibitor, single point]
COC(=O)c1ccc(NC(=O)CN2CCN(S(=O)(=O)c3cc(Cl)ccc3OC)CC2)cc1 | inactive
Clc1ccc(C[n+]2csc3ccccc32)cc1 | inconclusive: 28.2 µM [inhibitor, single point]
COc1cccc(CN2CCNC(=O)C2CC(=O)N2CCCCO2)c1OC (configuration not stated) | inactive
NC(=Nc1ccccc1)NC(=O)c1nc(Cl)c(N)nc1N | inconclusive: 25.1 µM [inhibitor, partial curve]
COc1ccc(/C=N/n2cc(-c3ccc(OC)cc3)nc2N)cc1 | inactive
Cc1ccc(C(C#N)c2ccc(Cl)nn2)cc1 (configuration not stated) | inactive
CNc1n[nH]c(=S)s1 | inactive
Cc1ccc(N(Cc2cc3ccc(C)cc3[nH]c2=O)S(C)(=O)=O)c(C)c1 | inconclusive: 39.8 µM [inhibitor, single point]
CCCCn1c(CN2CCN(c3cccc(Cl)c3)CC2)nc2c1c(=O)n(C)c(=O)n2C | inconclusive: 12.6 µM [inhibitor, partial curve]
CCOC(=O)Cc1csc(/N=C/c2c(O)n(-c3ccccc3C(F)(F)F)c(=O)c3ccccc23)n1 | inconclusive: 14.1 µM [inhibitor, partial curve]

Reference: PubChem BioAssay AID2147 (National Center for Advancing Translational Sciences (NCATS), 2009)
